Source: PubChem BioAssay AID743279 (National Center for Advancing Translational Sciences (NCATS), 2014)
Hit rate of the full screen: of about 360,000 compounds, about 17,000 (4.7%) were called active. Inconclusive results, whose numbers are uncertain, are shown with a selection of clear calls. No stated cut-off is given here; in the data, active means activity change below about -50%; inconclusive means mostly about -30% to -49%; inactive means weaker than that.

Assay: qHTS for Inhibitors of Inflammasome Signaling: IL-1-beta AlphaLISA Primary Screen
Conditions: THP-1 LPS/ATP IL-1B secretion, 16 h; at 57.5 µM, stronger effect = lower value
How it was run: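 THP-1 cells pretreated 1 hr with compounds (up to 57.5 uM final), then stimulated with LPS (250 ng/mL final) plus ATP (1.25 mM final); secreted IL-1B measured by AlphaLISA after 16 hr, decreased signal indicating inhibition.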
On the % scale 0 is the no-effect control and ±100 the full control effect.

Structure (SMILES) | activity change
COc1cc(CC(=O)OCC(=O)N2CC(=O)Nc3ccccc32)cc(OC)c1OC | inactive: 0%
COc1ccc(NC(=O)/C(C#N)=C/c2ccc(Sc3nncn3C)c([N+](=O)[O-])c2)cc1 | inconclusive: -34.1%
COC(=O)CC1=C(C(=O)OC)C(c2cccc(OCC(N)=O)c2)C(C#N)=C(N)O1 (configuration not stated) | inconclusive: -49.4%
N#CC1=C(N)OC2=C(CCc3ccccc32)C1c1ccccc1Cl (configuration not stated) | active: -73%
COC(=O)c1ccc2c(c1O)C(=O)c1ccccc1C2=O | inconclusive: -38.4%
COC(=O)[C@@]1(Sc2ccc(C)cc2)CC(=O)N(c2cccc(SC)c2)[C@@H]1c1ccccc1 | inconclusive: -46.8%
CC[C@]12c3[nH]c4cc(-c5ccco5)ccc4c3CCN1C(=O)[C@@H](CC(=O)NCCC1=CCCCC1)C[C@@H]2C(=O)N1CCN(C(=O)C2CC2)CC1 | active: -50.2%
Cc1cccc(N(C)C(=O)C2CCCN2S(=O)(=O)c2cccc3nsnc23)c1 (configuration not stated) | inconclusive: -36.5%
COc1cccc2c1C(=O)c1c(O)c3c(c(O)c1C2=O)C[C@](O)(C(C)=O)C[C@H]3O[C@@H]1C[C@@H](N)[C@@H](O)[C@@H](C)O1 | inconclusive: -44.9%
O=C(/C=C/c1ccc2c(c1)OCO2)Nc1nc(-c2ccccc2)cs1 | inconclusive: -47.8%
COC(C[C@@H]1O[C@@H]1[C@H](O)[C@H](C)OCc1ccccc1)OC | inactive: 32.1%
CNC(=S)/N=C/NOCc1ccc(Cl)cc1Cl | active: -51.2%
Cc1onc(-c2ccccc2)c1-c1nnc(-c2ccccc2C(F)(F)F)o1 | inconclusive: -31.7%
C[C@H](N=C1NS(=O)(=O)c2ccccc21)C(=O)OCc1cc([N+](=O)[O-])cc2c1OCOC2 | inconclusive: -46.1%
COc1ccc(C(OCC(O)CNCCc2ccccc2)c2ccc(OC)cc2)cc1 (configuration not stated) | active: -107%
O=S(=O)(Nc1ccc(N=Nc2ccccc2)cc1)c1ccccc1 | active: -87.8%
CC(=O)NCCn1c(SCC(=O)c2ccccc2)nc2ccccc2c1=O | inconclusive: -37.9%
CC(=O)c1c(C)oc2ccc(N(C(C)=O)S(=O)(=O)c3cccc([N+](=O)[O-])c3)cc12 | inactive: 14%
COc1ccc(OC)c(NC(=O)c2ccc(N3C(=O)C4CC=C(C)CC4C3=O)cc2)c1 (configuration not stated) | inconclusive: -32.9%
Cc1ccccc1S(=O)(=O)N1CCN(c2ccc3c(c2)C2CC3CCN2C(=O)OCc2ccccc2)CC1 (configuration not stated) | inactive: 0.755%
Cc1csc(SCC(=O)Nc2nc(-c3ccccc3)cs2)n1 | inactive: -9.97%

Structure (SMILES) | activity change
CN1CCN(S(=O)(=O)c2cnccc2N2CCN(c3cccc(Cl)c3)CC2)CC1 | active: -50.5%
Cc1noc(C)c1C(=O)OC(C)C(=O)c1ccc(C(C)(C)C)cc1 (configuration not stated) | inactive: 13%
O=C(Cc1csc(NC(=O)Nc2ccc(Cl)cc2)n1)NC1CCCC1 | active: -53.3%
CN(C)C(CNC(=O)CCCN1C(=O)c2cccc3cccc(c23)C1=O)c1ccccc1 (configuration not stated) | inconclusive: -31.3%
CC(C)On1c(SCC(=O)N(C)C)nc2ccccc2c1=O | inactive: 0%
c1cc(SSc2ccncc2)ccn1 | inconclusive: -40%
Nc1nc(N)nc(-c2ccccc2O)n1 | inconclusive: -34.6%
CC(CC(=O)Nc1ccc2c(c1)c(=O)n(C)n2Cc1cccc(C(F)(F)F)c1)C(F)(F)F (configuration not stated) | inactive: 3.35%
Cc1ccc(-n2nc3c(c2NC(=O)c2cc4ccccc4o2)CS(=O)(=O)C3)cc1 | inconclusive: -38.4%
Cc1ccc(-n2c(Cl)c(Cl)[nH]c(=O)c2=O)cc1 | inactive: 5.67%
COc1ccc(CN2C(=O)CSCC2(C)C(=O)NCc2ccccc2)cc1 (configuration not stated) | inconclusive: -42%
COc1ccccc1/C=C/C(=O)Nc1ccc2c(c1)CCC2 | inconclusive: -44.8%
CC(CNCCCn1ccc(NC(=O)OCc2ccccc2)nc1=O)c1ccccc1 (configuration not stated) | inconclusive: -35%
Cc1ccc(-c2nc(NCc3ccc(F)cc3)n(S(C)(=O)=O)n2)cc1 | inconclusive: -37%
Cc1nc(Oc2ccccc2)c2ccccc2n1 | inconclusive: -40.9%
CCCOc1ccc2ccccc2c1/C=N/n1cnnc1 | inconclusive: -40.8%
CCCCCn1c(N2CCN(Cc3ccccc3)CC2)nc2c1c(=O)[nH]c(=O)n2C | inactive: -13.5%
N#Cc1ccc(N2CCOCC2)c([N+](=O)[O-])c1 | inactive: 0%
Cc1cccc(NC(=O)c2ccc(-n3ccnc3)nc2)c1 | inconclusive: -46.4%
COc1ccc(OCC(=O)NC(=O)c2ccccc2OC)c([N+](=O)[O-])c1 | inactive: 25.7%
CCCCNC(=O)C[C@@H]1C[C@@]2(C(=O)OC)CCCCC=C2N(CCC2=CCCCC2)C1=O | inconclusive: -48.7%

Structure (SMILES) | activity change
O=C1CCC(C(=O)NCCN2C(=O)S/C(=C\c3cccnc3)C2=O)=NN1 | inactive: -2.55%
O=C(OCc1ccc([N+](=O)[O-])cc1)c1cnc(Cl)c(Cl)c1 | inconclusive: -34.9%
O=C(NC1=C(Nc2ccc(F)cc2)C(=O)c2ccccc2C1=O)c1ccc(Cl)cc1 | inactive: 29.7%
CCOC(=O)C[C@H]1c2ccccc2S(=O)(=O)N1Cc1ccc(Cl)cc1 | inactive: 14.4%
O=c1c2c([nH]c3ccccc13)CCCCC2 | inactive: 45.1%
COc1cc(NC(=O)C(C)C)ccc1NC(=O)c1cc2ccccc2o1 | inconclusive: -40.3%
CCCCN(CC)C(=O)Cc1ccccc1OC | inconclusive: -39.1%
Cc1noc(C)c1S(=O)(=O)N(C)C[C@H]1Oc2ccc(NC(=O)Cc3ccccc3)cc2C(=O)N([C@H](C)CO)C[C@@H]1C | inactive: 7.05%
Cc1ccc(-n2nc3c(=O)n(CCCC(=O)NCCN4CCN(C)CC4)nc(C)c3c2C)cc1 | inconclusive: -44.4%
c1ccc(OCCNc2nc(NCC3CC3)nc3ccsc23)cc1 | inconclusive: -41%
CCCC(c1nnnn1C(C)(C)CC)N1CCN(C2CCCC2)CC1 (configuration not stated) | inconclusive: -38.6%
Cn1cc(CN2CCN(c3ccccc3)CC2)c2ccccc21 | inconclusive: -34.8%
CCOc1ccc2nc3sc(C(=O)N4CCN(C)CC4)c(N)c3cc2c1 | inconclusive: -35.3%
CCN1CCN(C(c2ccccc2)c2nnnn2Cc2ccc(OC)cc2)CC1 (configuration not stated) | inconclusive: -42.9%
Cc1ccc(-n2cc(CN3CCC(O)(c4ccccn4)CC3)c(-c3ccc(F)cc3)n2)cc1 | active: -103%
COc1ccccc1-c1sc2ccccc2c1C#CC1(O)CCCCC1 | inconclusive: -37.9%
CSCC[C@H](NC(=O)c1cccc(S(=O)(=O)N2CCCCCC2)c1)c1nc2ccccc2[nH]1 | inconclusive: -39.3%
Cc1ccc(C(=O)Nc2ccc(C)c(S(=O)(=O)N(C)C)c2)s1 | inconclusive: -30.1%
O=C(NCCN1CCOCC1)c1sc2ccccc2c1Cl | inactive: 20%
Cc1ccc(C23CC4CC(CC(NC(=O)N5CCN(C)CC5)(C4)C2)C3)cc1 | inconclusive: -36.6%
